We go through 120 sequences from the supplement of paper PMC10126150.

Values marked as one replicate rest on one cluster of the flow cell; about a third of the high ones do not repeat.
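Note: ATP exposure 15 min at 22 °C before imaging.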

For the series, the system named is ATP. In words: switch fluorescence ratio, 500 uM ATP over buffer (Cy3 cluster intensity, sum of 5 cycles each) (fold (ratio)); higher = stronger signal-on switching upon ATP binding; sequences stand for … in TCGTCGGCAGCGTCAGATGTGTATAAGAGACAGTTTTTTTTTTTTTTTTTTTTTTTTT…TC. The settings on record: aptamer strand: ATP DNA aptamer (quencher-CACCTGGGGGAGTATTGCGGAGGAAGG + anchor), 100 nM annealed; ATP concentration: 500 uM; one replicate. In short, it runs like this: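 Five buffer/ATP imaging cycles were run on Cy3-labelled switching-strand clusters on a modified Illumina MiSeq flow-cell, with NaOH stripping and re-annealing between cycles. In each cycle, clusters annealed to 100 nM quencher-labelled ATP aptamer were imaged in selection buffer, then after 15 min with 500 uM ATP at 22 °C. Per cluster, the fluorescence ratio is summed target-cycle over summed buffer-cycle Cy3 intensity, averaged per switch-domain sequence. Only clusters within 100-1000 RFU were kept.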
With AGATGTCTCG, the switch fluorescence ratio came to 0.976.
For CTATCTTGGG, the switch fluorescence ratio was found to be 0.952.
As for GCAACGTTAG, the switch fluorescence ratio came out at 1.
In the case of GCTTTCGTTG, the switch fluorescence ratio was found to be 0.984.
In the case of AAATGAGTAC, the switch fluorescence ratio stood at 0.936.
As for AGCTATCTGG, the figure is 0.987.
The figure for CGCGAGTCAC is 1.61; for AAATAATTAC it is 1.
As for AGGGGACCT, the figure is 1.19.
Turning to CCTTCAAACC, the switch fluorescence ratio is 1.25.
With AAAATTTGCC, the switch fluorescence ratio worked out at 1.03.
On to TATATTTCAG, for which the switch fluorescence ratio was found to be 1.01.
On to TTTGGCCACC, for which the switch fluorescence ratio was determined as 1.
As for AATGCTGTTA, the figure is 1; as for GGCTCTTCAT, 0.983.
Turning to TGCGCGATCC, the switch fluorescence ratio was 3.34.
As for CGCTCTAGCG, the figure is 0.958; as for TTCTTAGTGC, 1.08; as for GCGTGCTTGG, 1.01.
As for AGTTGCGGAT, the figure is 1.02; as for ACGATGCCAA, 1.08; as for TCAGATCGTG, 0.972.
As to TAGTATCGGA, the switch fluorescence ratio stood at 1.01.
Turning to AGGAATTACA, the switch fluorescence ratio is 1.02.
The figure for TGCGATACTT is 2.44; for TCAAAAATAC it is 2.2; for ACGGAAATGC it is 1.36.
The figure for GCAGCTGTCG is 1; for ACTTAATACG it is 1.15; for TTCAGGAGAG it is 1.02.
Take ATATGGAGGA: the switch fluorescence ratio was found to be 1.01.
As to ATACCCGCAT, the switch fluorescence ratio worked out at 2.
Consider TTCGATGCGT, for which the switch fluorescence ratio was found to be 1.02.
As to CAAATGTCTT, the switch fluorescence ratio worked out at 0.984.
For the sequence GACGTGCTTA, the switch fluorescence ratio was 0.993.
With CACAGGTAGA, the switch fluorescence ratio is 1.08.
Take CACGTCTACC: the switch fluorescence ratio stood at 1.38.
As for CCGATAATG, the switch fluorescence ratio amounted to 1.17.
On to AAAAATTGG, for which the switch fluorescence ratio was 0.953.
The figure for TATGGGTCAA is 1.
In the case of GCTGAGGTTC, the switch fluorescence ratio is 1.06.
On to GTAGAAGCCC, for which the switch fluorescence ratio came out at 1.02.
As for CCACGGTACG, the figure is 1.01; as for GGTTGGGTTC, 0.957.
As for ACAACTTTCG, the figure is 1.03; as for ATCGACCAGC, 1.05; as for AGGACACTTG, 1.01.
Consider AAAGTGACAT, for which the switch fluorescence ratio came out at 0.989.
For CGGTTTAACA, the switch fluorescence ratio was 1.02.
As for GCGCAAGACA, the figure is 2.43; as for GGAAGTAAG, 0.967; as for ATGATACGTG, 0.957.
As to GGTCCCCCAG, the switch fluorescence ratio stood at 4.35.
Consider AATGCGCTGT, for which the switch fluorescence ratio was determined as 0.994.
Take CGGTTCTTTC: the switch fluorescence ratio was 1.03.
As to TATGAGGTAG, the switch fluorescence ratio came out at 0.988.
On to AGTTTTCAAC, for which the switch fluorescence ratio was determined as 0.93.
For the sequence GGTTTGGAAC, the switch fluorescence ratio is 1.07.
The figure for AGAAGTTATT is 0.999; for AGCAAAGTCG it is 0.946.
In the case of GCTGGACAAT, the switch fluorescence ratio came to 1.02.
Regarding ACCCGAAATT, the switch fluorescence ratio was 1.02.
On to TGCATTTTCA, for which the switch fluorescence ratio turned out to be 1.01.
As for CCGGCGGACG, the figure is 1.02; as for CCATAGCGGG, 1.17.
Take CTTGTAAGTA: the switch fluorescence ratio was found to be 0.948.
For the sequence CGAAGGCCTT, the switch fluorescence ratio was 0.961.
As for CGCATAATTG, the switch fluorescence ratio was 1.1.
Take TTGGTGCAGG: the switch fluorescence ratio stood at 1.07.
With AGCTTATTGT, the switch fluorescence ratio was determined as 1.02.
Regarding ATGACCCCCG, the switch fluorescence ratio came out at 1.05.
On to GCTTTTCGAG, for which the switch fluorescence ratio turned out to be 1.04.
The figure for GAACGGTCTC is 0.996; for TTGTGGCATG it is 0.991.
Turning to AAGGCTCACG, the switch fluorescence ratio was found to be 1.04.
As to AGCGGGTCCT, the switch fluorescence ratio stood at 0.998.
For AATGTCGGTC, the switch fluorescence ratio stood at 0.985.
Take TAAAGACTTA: the switch fluorescence ratio was determined as 0.994.
Take GCATCCAGTC: the switch fluorescence ratio is 0.995.
For TTCTTTTTCC, the switch fluorescence ratio was found to be 1.05.
For CTGTTCACG, the switch fluorescence ratio is 0.964.
With ACAGATTTTC, the switch fluorescence ratio is 0.986.
With CGCTCCCAGG, the switch fluorescence ratio came to 1.62.
For GCTCAGATAC, the switch fluorescence ratio came to 2.07.
On to AGGTCTTTGA, for which the switch fluorescence ratio is 0.985.
As to TCAAAGCAAC, the switch fluorescence ratio worked out at 3.44.
As for GTTATTGATT, the figure is 1.06; as for ACGCATGTCA, 1.05; as for TAGATTTTGG, 0.974.
The figure for ACTACTATGT is 1.06; for CTAGGTGAGC it is 1.05.
Regarding AGAATGATGC, the switch fluorescence ratio worked out at 0.993.
Consider TTGGAGTCGC, for which the switch fluorescence ratio was found to be 1.02.
In the case of CTTATTTGCA, the switch fluorescence ratio was found to be 1.04.
Take GGAATCGAGT: the switch fluorescence ratio was 1.02.
As for AATTGTCCTA, the figure is 0.955; as for GCGGTACCAT, 0.984.
With TTTGTCCAGC, the switch fluorescence ratio was 1.07.
As for AGTACTATAT, the figure is 1.01; as for CATTTACGGT, 1.04; as for TGTGTGCCGT, 0.95.
As for TTCGTAATG, the figure is 1.04; as for CAGTAAGGTG, 1.07; as for TTTCTAGGCG, 1.03.
On to AAGCAAATCA, for which the switch fluorescence ratio amounted to 1.01.
The figure for GGCGGTCGC is 1.01; for TTCTGGGGT it is 1.
Turning to TCTGAACCGC, the switch fluorescence ratio amounted to 1.41.
On to CAGACCACAT, for which the switch fluorescence ratio turned out to be 1.06.
CTGGAGCGCC: the switch fluorescence ratio was 1.6.
As for TTAATAGCAG, the figure is 0.993; as for TGGACTAAAT, 1.01; as for GAGAGCAGTA, 1.12.
Consider TGCAGGTAAA, for which the switch fluorescence ratio was found to be 1.07.
As for GGTTGTCGGG, the figure is 0.977; as for AGAGACGCGG, 1; as for TTTCTCGC, 1.47.
As to AACAGTGGGA, the switch fluorescence ratio came to 0.962.
As for CGCAGGGTTG, the switch fluorescence ratio was determined as 1.06.
As for AAAGTCGAAT, the figure is 1.01.
